From paper doi:10.1101/2024.12.16.628790 (bioRxiv, 2024)

Target: the molecule itself
Assay: MAS NMR

B1: segmentally labeled full-length HSPB1 (S83C), made by split-intein splicing (natural protein)
chain: not shown
B1: binds.
